# Hit rate of the full screen: of about 310,000 compounds, about 14,000 (4.5%) showed an effect of 50% or more. The effect is printed as a negative number. The list shows a part of the results.
# Molecular target: human ether-à-go-go-related gene (hERG) potassium channel (human, UniProt Q12809)
# Test: primary screen, population patch clamp on CHO cells stably expressing hERG
# 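Note: peak tail current of the secondary pulse compared with the same well before compound.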
# human ether-à-go-go-related gene (hERG) potassium channel, sequence (Q12809 whole entry, looked up): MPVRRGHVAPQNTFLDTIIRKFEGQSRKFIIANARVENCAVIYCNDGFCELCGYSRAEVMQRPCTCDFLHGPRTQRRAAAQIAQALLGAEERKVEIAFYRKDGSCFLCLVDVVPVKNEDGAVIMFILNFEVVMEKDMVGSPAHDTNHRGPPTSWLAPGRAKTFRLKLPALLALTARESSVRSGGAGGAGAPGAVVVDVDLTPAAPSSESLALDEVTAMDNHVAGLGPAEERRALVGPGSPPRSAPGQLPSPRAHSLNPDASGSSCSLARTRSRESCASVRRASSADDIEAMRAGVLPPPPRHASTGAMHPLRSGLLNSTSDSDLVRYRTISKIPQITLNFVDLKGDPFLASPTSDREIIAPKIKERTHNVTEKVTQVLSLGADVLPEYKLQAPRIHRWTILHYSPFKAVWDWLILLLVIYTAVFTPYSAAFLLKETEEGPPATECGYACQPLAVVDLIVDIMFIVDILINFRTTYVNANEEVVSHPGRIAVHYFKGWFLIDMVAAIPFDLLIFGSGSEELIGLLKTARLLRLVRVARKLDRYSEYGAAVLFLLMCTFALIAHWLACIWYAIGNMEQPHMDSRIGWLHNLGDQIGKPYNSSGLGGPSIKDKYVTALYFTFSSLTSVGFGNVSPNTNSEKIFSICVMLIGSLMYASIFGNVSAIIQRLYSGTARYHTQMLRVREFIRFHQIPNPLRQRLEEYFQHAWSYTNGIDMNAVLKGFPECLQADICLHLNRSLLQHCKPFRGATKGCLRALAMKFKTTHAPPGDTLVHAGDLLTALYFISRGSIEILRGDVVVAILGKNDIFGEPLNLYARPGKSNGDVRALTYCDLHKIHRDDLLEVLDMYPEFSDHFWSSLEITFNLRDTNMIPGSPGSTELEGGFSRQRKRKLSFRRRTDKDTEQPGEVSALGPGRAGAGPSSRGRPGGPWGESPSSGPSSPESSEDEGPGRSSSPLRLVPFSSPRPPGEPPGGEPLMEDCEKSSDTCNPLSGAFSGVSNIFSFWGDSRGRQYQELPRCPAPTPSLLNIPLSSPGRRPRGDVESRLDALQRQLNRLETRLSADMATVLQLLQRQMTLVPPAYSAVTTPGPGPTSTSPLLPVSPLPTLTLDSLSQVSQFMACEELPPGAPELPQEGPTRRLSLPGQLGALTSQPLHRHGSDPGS
row,SMILES,"hERG current change (%, negative = inhibition) at 10uM"
1,Cc1ccc(NC(=O)CCC(=O)N/N=C/c2cccnc2)cc1,8.62%
2,COc1ccccc1OCC(=O)NCC1CCCN(Cc2cnn(C(C)C)c2)C1 (stereo not shown),6.8%
3,Cc1cc(C)nc(SCC(=O)NNC(=O)c2ccccc2C)n1,1.72%
4,CCCCNC(=O)NS(=O)(=O)c1ccc(C)cc1,10.4%
5,Cc1ccc(NS(=O)(=O)c2ccc(-c3ccc(=O)[nH]n3)o2)cc1N(C)C,1.5%
6,O=C(Nc1ccc2c(c1)C(=O)OC2)c1ccc(Cl)cc1Cl,-0.86%
7,O=C(Cn1cnc2ccccc2c1=O)NCCC(=O)N1CCC2(CC1)OCCO2,17.7%
8,COc1cc(NC(=O)c2cccc(F)c2)cc(OC)c1OC,13.1%
9,O=S(=O)(NCC1CCCO1)c1cccc(C(F)(F)F)c1 (stereo not shown),-4.14%
10,Cc1cccc(C)c1NC(=O)CN1CCN(C(=O)CNC(=O)c2ccc(N3CCCC3=O)cc2)CC1,11.8%
11,Cc1cccc(C)c1NC(=O)Cn1cc(C=O)c2ccccc21,13.7%
12,Cn1nnnc1NCc1cccc(Cl)c1Cl,4.08%
13,CSc1c(SCc2ccccc2)cnn(Cc2ccccc2)c1=O,-11%
14,CN(C(=O)c1cnccn1)c1nnc(-c2cnccn2)s1,19.8%
15,CN1CCc2c(sc3nc(SCC(N)=O)n(-c4ccc(Cl)cc4)c(=O)c23)C1,5.01%
16,COc1ccc(OC)c(-c2cc(C(=O)NCc3ccco3)no2)c1,1.06%
17,CC[n+]1ccc(/C=C/c2c[nH]c3ccccc23)cc1.[Cl-],-6.54%
18,Cc1cccc(N2CCN(C(=O)c3ccc4nc[nH]c4c3)CC2)c1C,-37.9%
19,COc1ccc(Oc2cnc3ccccc3n2)cc1,3.96%
20,O=C(CN1C(=O)COc2ccccc21)NCCCN1CCN(c2ccccc2F)CC1,-10.7%
21,O=C(N/N=C/c1cccc(OC(=O)c2cccc(Br)c2)c1)c1ccncc1,2.67%
22,COc1ccccc1CNC(=O)CN(C)S(=O)(=O)c1ccc(Br)s1,-23.8%

row,SMILES,"hERG current change (%, negative = inhibition) at 10uM"
1,C=CCOc1c(CNn2nnnc2N)cccc1OC,6.68%
2,NC(=S)N/N=C/c1cc([N+](=O)[O-])ccc1OCCOc1ccccc1,-1.93%
3,CC(=O)Nc1cccc(NC(=O)CSc2ncc(-c3ccc(Cl)cc3)n2Cc2ccco2)c1,-9.51%
4,Nc1ccc(-c2nc3ccc(N)cc3[nH]2)cc1,7.85%
5,O=C(N/N=C/c1ccncc1)c1nc2ccccc2c(=O)[nH]1,-8.65%
6,COc1cc(OC)c2ccc(=O)oc2c1C(CC(=O)N1CCOCC1)c1ccc(N(C)C)cc1 (stereo not shown),17.9%
7,O=C(Nc1cccnc1)c1cn(-c2ccccc2)nc1-c1cccs1,12.2%
8,CCN1C(=O)N/C(=C/c2cc(C)n(Cc3ccccc3)c2C)C1=O,1.63%
9,CC1CC(C)CN(C(=O)C2CCN(S(=O)(=O)c3cccc4cccnc34)CC2)C1 (stereo not shown),-6.68%
10,C/C(CC(=O)NC(C)C)=N\NC(=O)C(c1ccccc1)c1ccccc1,9.95%
11,CCOc1ccc(CCNC(=O)CCc2nnc3ccc(N4CCOCC4)nn23)cc1OCC,3.99%
12,COc1cccc2c1SCc1ccccc1C2CC(N)=O (stereo not shown),10.1%
13,OC1=C(O)c2nc3ccccc3nc21,-1.17%
14,CCOC(=O)C1(Cc2ccccc2)CCCN(C(=O)c2cn[nH]c2)C1 (stereo not shown),13.4%
15,C=Cc1cccc(NC(=O)c2ccc(NC(=O)c3ccco3)cc2)c1,-17.2%
16,O=C(COC(=O)c1cc(Cl)nc2ccccc12)c1ccc(Cl)cc1,18.5%
17,CCOc1ccc2nc(Cl)c(C3CC(c4ccco4)=NN3S(=O)(=O)c3ccccc3)cc2c1 (stereo not shown),-14.1%
18,COc1ccc(-n2ncc3c2CC(C)(C)CC3NC(=O)CCn2nc(C)cc2C)cc1 (stereo not shown),-14%
19,COC(=O)Cc1c(C)c2ccc(OCC(=O)NC3CCS(=O)(=O)C3)cc2oc1=O (stereo not shown),26.8%
20,Cn1cc(/C=C2/SC(=O)N(c3ccccc3)C2=O)c2ccccc21,14.6%
21,COCC(=O)N(CCN(C)C)Cc1cc2cc3c(cc2nc1Cl)OCO3.Cl,9.38%
22,CC(=O)c1ccc(NS(=O)(=O)c2ccc3c(c2)N(C)CCO3)cc1,11.6%

row,SMILES,"hERG current change (%, negative = inhibition) at 10uM"
1,CCC(NC(=O)NCc1ccccc1)(C(F)(F)F)C(F)(F)F,5.5%
2,O=C(CN(CC1CCCO1)C(=O)CCC(=O)Nc1nccs1)NCC1CCCO1 (stereo not shown),-5.53%
3,Cc1cc(S(=O)(=O)N2CCCOC2CNC(=O)C(=O)NCCc2ccco2)ccc1F (stereo not shown),-1.91%
4,COc1ccc(C2=NN(c3ccc(C(=O)O)cc3)C(c3ccc(OC)c(OC)c3)C2)cc1 (stereo not shown),2.92%
5,Cc1ccc(NS(=O)(=O)c2ccc3c(c2)n(C)c(=O)n3C)c(C)c1,-11.5%
6,Br.O=C(Cn1c(NCCCO)nc2ccccc21)c1ccco1,2.48%
7,COc1ccc(N=C2SC(C(=O)O)CC(=O)N2Cc2ccc(OC)c(OC)c2)cc1 (stereo not shown),2.27%
8,CC(=O)Nc1nnc(SCC(=O)N2CCCc3ccccc32)s1,6.76%
9,C=CCSc1nnc(-c2nnc(SCC=C)n2-c2ccccc2)n1-c1ccccc1,-37.7%
10,Cn1cc(CN2CCC(O)CC2)c(-c2ccc(Oc3ccccc3)cc2)n1,-23.7%
11,O=[N+]([O-])c1cccc(C=Nc2cccc3ccccc23)c1O,12.7%
12,CCCCNC(=O)Cn1nc(-c2ccc(C)cc2)ccc1=O,-1.13%
13,CCC(C)C(NS(=O)(=O)c1ccc(C)cc1)C(=O)NCCCN1CCOCC1 (stereo not shown),20.7%
14,COc1ccc(NC(=O)CN2CCCN(S(=O)(=O)c3ccc(F)cc3)CC2)cc1,-36.5%
15,COc1ccc(C(=O)N2CCN(Cc3ccccc3)CC2)cc1[N+](=O)[O-],-52%
16,CC(=O)NCCc1nc2cc(NC(=O)c3ccc(Cl)cc3)ccc2n1C,0.932%
17,CCc1cc2c(Nc3ccc(O)cc3)nc(C)nc2s1.Cl,8.46%
18,O=C(NNC(=S)Nc1ccccc1)c1cc(Br)ccc1Cl,12.2%
19,Cn1cc(CN2CCc3sccc3C2)c(-c2ccccc2F)n1,-4.7%
20,COc1cc(NC(=S)NN2CCN(C)CC2)cc(OC)c1OC,-3.14%
21,O=C(NCc1cccs1)C(=O)NCC(c1ccco1)N1CCN(c2ccccc2F)CC1 (stereo not shown),-2.25%
22,CN(C)CCCNC(=O)c1cc(C(=O)c2ccc(F)cc2)c[nH]1,-68.5%

row,SMILES,"hERG current change (%, negative = inhibition) at 10uM"
1,Br.c1ccc(-c2csc(Nc3ccc4c(c3)OCCO4)n2)cc1,5.4%
2,COc1ccccc1C(=O)NC1CC(C)(C)NC(C)(C)C1,20.5%
3,COc1ccc(C2=CC(c3ccc(C)cc3)n3nnnc3N2)cc1 (stereo not shown),-6.67%
4,COc1ccc(-c2coc3cc(OC4OC(CO)C(O)C(O)C4O)ccc3c2=O)cc1 (stereo not shown),4.06%
5,COc1ccc(N(C(=O)C2CCCCC2)S(=O)(=O)c2cccc3cccnc23)cc1,-20.7%
6,COc1cc(NC(=O)CN2CCCCC2C)c(C)cc1[N+](=O)[O-] (stereo not shown),-18%
7,COc1cc(/C=C2/C(=O)ON=C2C)ccc1OCc1ccccc1F,2.22%
8,COc1ccc(N2CCN(S(=O)(=O)c3ccc4c(c3)OCCO4)CC2)cc1,3.84%
9,Cc1ccc(-c2[nH]c(=O)n3ccncc23)s1,13.7%
10,CCN(CC)C(=O)Cn1cc(SCC(=O)NCc2ccco2)c2ccccc21,-1.42%
11,CCOc1ccc(S(=O)(=O)N2CCN(C)CC2)cc1NC(=O)c1ccccc1F,-48.5%
12,CC(C)C(NS(=O)(=O)c1cccs1)C(=O)NCCN1CCN(c2ccccc2)CC1 (stereo not shown),-20.9%
13,CC(C(N)=O)N1c2cccc3cccc(c23)S1(=O)=O (stereo not shown),4.59%
14,COc1ccc(C(=O)Nc2nnc(Cc3cccs3)s2)cc1OC,0.689%
15,Cc1ccc2cc(CN(CC3CCCO3)S(=O)(=O)c3c(C)ccc4nsnc34)c(=O)[nH]c2c1 (stereo not shown),-4.15%
16,NC(=O)c1ccc(Oc2ccc3ccc(=O)oc3c2)c([N+](=O)[O-])c1,-15.1%
17,C=CCNC(=S)NCc1ccccc1OC,-10.1%
18,COc1ccccc1NS(=O)(=O)c1cc(C(=O)NCC(C)(C)N2CCOCC2)ccc1C,-31.3%
19,COc1ccc(C2C(C#N)=C(N)OC3=C2C(=O)CC(C)(C)C3)c(OC)c1OC (stereo not shown),4.34%
20,O=C(COc1ccc(S(=O)(=O)N2CCCCC2)cc1)N1CCCCCC1,-6.75%
21,Cc1ccc(CN(Cc2ccco2)C(=S)NCC(=O)NC2CC2)cc1,-10.1%
22,O=C(CSc1ccsc1[N+](=O)[O-])NCc1ccco1,-5.43%
